This is one part of the list. Where only a bound is given, the exact number is not on record here.

The chains are these.
B1: PhoQ; a variant is named by its letters at X, in order, P23837 (parent)
chain: MKKLLRLFFPLSLRVRFLLATAAVVLVLSLAYGMVALIGYSVSFDKTTFRLLRGESNLFYTLAKWENNKLHVELPENIDKQSPTMTLIYDENGQLLWAQRDVPWLMKMIQPDWLKSNGFHEIEADVNDTSLLLSGDHSIQQQLQEVREDDDDAEMTHSVAVNVYPATSRMPKLTIVVVDTIPVELKSSYMVWSWFIYVLSANLLLVIPLLWVAAWWSLRPIEALAKEVRELEEHNRELLNPATTRELTSLVRNLNRLLKSERERYDKYRTTLTDLTHSLKTPLXXLQXXLRSLRSEKMSVSDAEPVMLEQISRISQQIGYYLHRASMRGGTLLSRELHPVAPLLDNLTSALNKVYQRKGVNISLDISPEISFVGEQNDFVEVMGNVLDNACKYCLEFVEISARQTDEHLYIVVEDDGPGIPLSKREVIFDRGQRVDTLRPGQGVGLAVAREITEQYEGKIVAGESMLGGARMEVIFGRQHSAPKDE

The test covers variants of B1. Kind of test: enrichment ratio after two sorts for PhoP signalling (ratio (wild type AVST 3.29)); higher = more functional. The following applies: with PhoP (E. coli).
On to FFDE, for which the enrichment ratio is no more than 0.25.

Consider PHSH, for which the enrichment ratio is no more than 0.25.

Turning to FWRV, the enrichment ratio was no more than 0.25.

AADK: the enrichment ratio was no more than 0.25.

On to AKSF, for which the enrichment ratio was found to be 2.49.

For DFHE, the enrichment ratio is no more than 0.25.

Consider WLSK, for which the enrichment ratio is no more than 0.25.

Turning to IFWV, the enrichment ratio is no more than 0.25.

Take EHMH: the enrichment ratio was no more than 0.25.

For DDEG, the enrichment ratio is no more than 0.25.

For the variant MTIN, the enrichment ratio is no more than 0.25.

In the case of HFHS, the enrichment ratio was no more than 0.25.

In the case of REYW, the enrichment ratio was no more than 0.25.

In the case of EQLA, the enrichment ratio is no more than 0.25.

IWQW: the enrichment ratio was no more than 0.25.

For the variant KEGG, the enrichment ratio was no more than 0.25.

For RMRD, the enrichment ratio is no more than 0.25.

With IFHN, the enrichment ratio was no more than 0.25.

On to NNCG, for which the enrichment ratio is no more than 0.25.

As for VSKS, the enrichment ratio was no more than 0.25.

As for CCSY, the enrichment ratio is no more than 0.25.

As to DCVY, the enrichment ratio is no more than 0.25.

With HAPL, the enrichment ratio is no more than 0.25.

For MTAF, the enrichment ratio is 8.26.

In the case of PANY, the enrichment ratio is no more than 0.25.

EMFL: the enrichment ratio was no more than 0.25.

Consider YKNR, for which the enrichment ratio was no more than 0.25.

Turning to PYEA, the enrichment ratio was no more than 0.25.

As to WNKW, the enrichment ratio was no more than 0.25.

As to NENM, the enrichment ratio is no more than 0.25.

Turning to IFRH, the enrichment ratio was no more than 0.25.

For the variant KYIN, the enrichment ratio was no more than 0.25.

As for VKFH, the enrichment ratio is no more than 0.25.

As for MVMN, the enrichment ratio was no more than 0.25.

ESWA: the enrichment ratio was no more than 0.25.

AKFG: the enrichment ratio was no more than 0.25.

With PRDI, the enrichment ratio was no more than 0.25.

As for ITGL, the enrichment ratio is no more than 0.25.

In the case of GRSG, the enrichment ratio was no more than 0.25.

Take FHWD: the enrichment ratio was no more than 0.25.

Turning to EHQS, the enrichment ratio was no more than 0.25.

Consider GCTY, for which the enrichment ratio stood at 5.53.

For VCMH, the enrichment ratio was no more than 0.25.

NKEY: the enrichment ratio is no more than 0.25.

For the variant NQGP, the enrichment ratio is no more than 0.25.

For GVIA, the enrichment ratio was no more than 0.25.

With DMAN, the enrichment ratio was no more than 0.25.

For the variant MFPP, the enrichment ratio was no more than 0.25.

VAKQ: the enrichment ratio was no more than 0.25.

In the case of RAQM, the enrichment ratio is no more than 0.25.

For LDNE, the enrichment ratio was no more than 0.25.

Consider THDC, for which the enrichment ratio was no more than 0.25.

QITY: the enrichment ratio was no more than 0.25.

YTFS: the enrichment ratio was no more than 0.25.

As to FYRQ, the enrichment ratio was no more than 0.25.

For VVYW, the enrichment ratio was no more than 0.25.

As for FSKD, the enrichment ratio was no more than 0.25.

Consider MEVF, for which the enrichment ratio is no more than 0.25.

With PMKT, the enrichment ratio is no more than 0.25.

On to SWCF, for which the enrichment ratio is no more than 0.25.

On to GKVI, for which the enrichment ratio was no more than 0.25.

Consider GWTT, for which the enrichment ratio is no more than 0.25.

Turning to VRII, the enrichment ratio is no more than 0.25.

With DCCF, the enrichment ratio is no more than 0.25.

On to NDKH, for which the enrichment ratio is no more than 0.25.

For the variant FFMK, the enrichment ratio is no more than 0.25.

In the case of KDQI, the enrichment ratio is no more than 0.25.

Regarding GMII, the enrichment ratio was no more than 0.25.

Consider RHMF, for which the enrichment ratio is no more than 0.25.

As for KCNA, the enrichment ratio is no more than 0.25.

Take LYSS: the enrichment ratio is no more than 0.25.

On to STEC, for which the enrichment ratio is no more than 0.25.

Consider QPDP, for which the enrichment ratio was no more than 0.25.

Consider KPGW, for which the enrichment ratio is no more than 0.25.

As to MKVE, the enrichment ratio was no more than 0.25.

Take FEAM: the enrichment ratio was 3.27.

In the case of QYLT, the enrichment ratio is no more than 0.25.

Take GDNN: the enrichment ratio is no more than 0.25.

Turning to QHWR, the enrichment ratio is no more than 0.25.

For GMGW, the enrichment ratio is no more than 0.25.

In the case of PVDH, the enrichment ratio was no more than 0.25.

Take WPRY: the enrichment ratio was no more than 0.25.

Take HDSQ: the enrichment ratio was no more than 0.25.

For the variant GCTV, the enrichment ratio was no more than 0.25.

As to HRCV, the enrichment ratio was no more than 0.25.

Take DVYM: the enrichment ratio is no more than 0.25.

With MDKP, the enrichment ratio was no more than 0.25.

For the variant PQII, the enrichment ratio is no more than 0.25.

As for AQMT, the enrichment ratio worked out at 23.8.

NCWI: the enrichment ratio was no more than 0.25.

MYGS: the enrichment ratio is no more than 0.25.

Take QSDA: the enrichment ratio amounted to 7.1.

As to KANY, the enrichment ratio was no more than 0.25.

On to GPHN, for which the enrichment ratio was no more than 0.25.

In the case of WFDQ, the enrichment ratio was no more than 0.25.

As for THKI, the enrichment ratio was no more than 0.25.

For the variant LDDH, the enrichment ratio was no more than 0.25.

For the variant VMIP, the enrichment ratio was no more than 0.25.

As for YRKG, the enrichment ratio was no more than 0.25.

LTED: the enrichment ratio is no more than 0.25.

With QNLI, the enrichment ratio is no more than 0.25.

As to DMEG, the enrichment ratio was no more than 0.25.

For LSSK, the enrichment ratio is no more than 0.25.

Consider RKNY, for which the enrichment ratio was no more than 0.25.

Regarding RDFT, the enrichment ratio was no more than 0.25.

Take IIPY: the enrichment ratio was no more than 0.25.

As for INHE, the enrichment ratio was no more than 0.25.

Consider MSRL, for which the enrichment ratio was no more than 0.25.

Regarding IWHS, the enrichment ratio is no more than 0.25.

YSQI: the enrichment ratio was 0.258.

For HEMH, the enrichment ratio was no more than 0.25.

VRAD: the enrichment ratio is no more than 0.25.

For QDNW, the enrichment ratio is no more than 0.25.

Turning to AVTG, the enrichment ratio was 11.3.

Regarding GPLL, the enrichment ratio was no more than 0.25.

In the case of AMPM, the enrichment ratio was no more than 0.25.

Take SHQA: the enrichment ratio is no more than 0.25.

On to PCGE, for which the enrichment ratio is no more than 0.25.

For the variant DCLE, the enrichment ratio was no more than 0.25.

Consider VSIV, for which the enrichment ratio is no more than 0.25.

In the case of WQWK, the enrichment ratio is no more than 0.25.

Consider WPFY, for which the enrichment ratio is no more than 0.25.

FIAQ: the enrichment ratio was no more than 0.25.

Take SKSV: the enrichment ratio came to 5.98.

As for PRVC, the enrichment ratio was no more than 0.25.

As for VKCV, the enrichment ratio was no more than 0.25.

Regarding KEQH, the enrichment ratio was no more than 0.25.

For the variant WSHL, the enrichment ratio was no more than 0.25.

In the case of GDFW, the enrichment ratio was no more than 0.25.

As for YWGR, the enrichment ratio was no more than 0.25.

Regarding NNQL, the enrichment ratio came out at 5.12.

As to DSKA, the enrichment ratio was no more than 0.25.

Consider MIDS, for which the enrichment ratio was no more than 0.25.

As to VDLN, the enrichment ratio is no more than 0.25.

Consider EPMV, for which the enrichment ratio was no more than 0.25.

With WHYQ, the enrichment ratio is no more than 0.25.

With WGLQ, the enrichment ratio is no more than 0.25.

Consider YIHN, for which the enrichment ratio is no more than 0.25.

Turning to DLYH, the enrichment ratio is no more than 0.25.

VTTA: the enrichment ratio was no more than 0.25.

As for NYTQ, the enrichment ratio was no more than 0.25.

As for SVCT, the enrichment ratio stood at 5.1.

With HGVY, the enrichment ratio was no more than 0.25.

With VMKS, the enrichment ratio is no more than 0.25.

Consider FTDG, for which the enrichment ratio is no more than 0.25.

On to VQPG, for which the enrichment ratio is no more than 0.25.

As for SAYY, the enrichment ratio was no more than 0.25.

For the variant DMWH, the enrichment ratio is no more than 0.25.

For the variant FYCC, the enrichment ratio is no more than 0.25.

On to LIVI, for which the enrichment ratio is no more than 0.25.

As to YPES, the enrichment ratio is no more than 0.25.

Turning to HYKQ, the enrichment ratio is no more than 0.25.

Turning to YLFY, the enrichment ratio is no more than 0.25.

The values above are taken from a collection of fitness landscapes (doi:10.1126/science.1257360).
